MIC of clinical C. albicans isolates, CLSI broth microdilution (ranges and time not stated); higher = less susceptible. Call: susceptible or wild type [S] / resistant or non-wild type [R] by CLSI breakpoints or epidemiological cut-offs; intermediate and dose-dependent carry no call here (the paper groups them with resistant). '<=' and '>=' mark each drug's lowest and highest value, inferred; the source prints them plain. Isolates are numbered anew.
Columns and labels:
Assay in all cases: CLSI broth microdilution.
posaconazole = compound: CC[C@@H]([C@H](C)O)n1ncn(-c2ccc(N3CCN(c4ccc(OC[C@@H]5CO[C@@](Cn6cncn6)(c6ccc(F)cc6F)C5)cc4)CC3)cc2)c1=O [posaconazole]
micafungin = compound: CCCCCOc1ccc(-c2cc(-c3ccc(C(=O)N[C@H]4C[C@@H](O)[C@@H](O)NC(=O)[C@@H]5[C@@H](O)[C@@H](C)CN5C(=O)[C@H]([C@H](O)CC(N)=O)NC(=O)[C@H]([C@H](O)[C@@H](O)c5ccc(O)c(OS(=O)(=O)O)c5)NC(=O)[C@@H]5C[C@@H](O)CN5C(=O)[C@H]([C@@H](C)O)NC4=O)cc3)no2)cc1 [micafungin]
caspofungin = compound: CC[C@H](C)C[C@H](C)CCCCCCCCC(=O)N[C@H]1C[C@@H](O)[C@@H](NCCN)NC(=O)[C@@H]2[C@@H](O)CCN2C(=O)[C@H]([C@H](O)CCN)NC(=O)[C@H]([C@H](O)[C@@H](O)c2ccc(O)cc2)NC(=O)[C@@H]2C[C@@H](O)CN2C(=O)[C@H]([C@@H](C)O)NC1=O [caspofungin]
anidulafungin = compound: CCCCCOc1ccc(-c2ccc(-c3ccc(C(=O)N[C@H]4C[C@@H](O)[C@@H](O)NC(=O)[C@@H]5[C@@H](O)[C@@H](C)CN5C(=O)[C@H]([C@@H](C)O)NC(=O)[C@H]([C@H](O)[C@@H](O)c5ccc(O)cc5)NC(=O)[C@@H]5C[C@@H](O)CN5C(=O)[C@H]([C@@H](C)O)NC4=O)cc3)cc2)cc1 [anidulafungin]
voriconazole = compound: C[C@@H](c1ncncc1F)[C@](O)(Cn1cncn1)c1ccc(F)cc1F [voriconazole]
itraconazole = compound: CCC(C)n1ncn(-c2ccc(N3CCN(c4ccc(OCC5COC(Cn6cncn6)(c6ccc(Cl)cc6Cl)O5)cc4)CC3)cc2)c1=O [itraconazole]
flucytosine = compound: Nc1[nH]c(=O)ncc1F [flucytosine]
amphotericin B = compound: C[C@@H]1[C@H](O)[C@@H](C)/C=C/C=C/C=C/C=C/C=C/C=C/C=C/[C@H](O[C@@H]2O[C@H](C)[C@@H](O)[C@H](N)[C@@H]2O)C[C@@H]2O[C@](O)(C[C@@H](O)C[C@@H](O)[C@H](O)CC[C@@H](O)C[C@@H](O)CC(=O)O[C@H]1C)C[C@H](O)[C@H]2C(=O)O [amphotericin B]
fluconazole = compound: OC(Cn1cncn1)(Cn1cncn1)c1ccc(F)cc1F [fluconazole]

Test System | MIC (posaconazole) | MIC (micafungin) | MIC (caspofungin) | MIC (anidulafungin) | MIC (voriconazole) | MIC (itraconazole) | MIC (flucytosine) | MIC (amphotericin B) | MIC (fluconazole)
Candida albicans isolate 113 (Erg11p: WT, Fur1p: WT, Tac1p: I558V,A377V,F189S,N174D,M170I,K87N) | ≤ 0.008 mg/L [S] | 0.015 mg/L [S] | 0.03 mg/L [S] | 0.03 mg/L [S] | ≤ 0.008 mg/L [S] | ≤ 0.015 mg/L [S] | ≤ 0.06 mg/L [S] | 0.25 mg/L [S] | ≤ 0.12 mg/L [S]
Candida albicans isolate 218 (Erg11p: WT, Fur1p: WT, Tac1p: N896S) | 0.015 mg/L [S] | ≤ 0.008 mg/L [S] | 0.015 mg/L [S] | ≤ 0.015 mg/L [S] | ≤ 0.008 mg/L [S] | ≤ 0.015 mg/L [S] | ≤ 0.06 mg/L [S] | 0.5 mg/L [S] | 0.25 mg/L [S]
Candida albicans isolate 270 (Erg11p: K342R,E266D, Fur1p: WT, Tac1p: I558V,A377V,F189S,N174D,M170I,K87N) | 0.03 mg/L [S] | 0.015 mg/L [S] | 0.06 mg/L [S] | 0.06 mg/L [S] | ≤ 0.008 mg/L [S] | 0.03 mg/L [S] | ≤ 0.06 mg/L [S] | 0.25 mg/L [S] | 0.25 mg/L [S]
Candida albicans isolate 265 (Erg11p: WT, Fur1p: WT, Tac1p: WT) | 0.015 mg/L [S] | ≤ 0.008 mg/L [S] | 0.03 mg/L [S] | ≤ 0.015 mg/L [S] | ≤ 0.008 mg/L [S] | 0.03 mg/L [S] | ≤ 0.06 mg/L [S] | 0.25 mg/L [S] | 0.25 mg/L [S]
Candida albicans isolate 315 (Erg11p: WT, Fur1p: WT, Tac1p: N896S,I895T) | 0.015 mg/L [S] | 0.015 mg/L [S] | 0.03 mg/L [S] | 0.06 mg/L [S] | ≤ 0.008 mg/L [S] | 0.03 mg/L [S] | ≤ 0.06 mg/L [S] | 0.25 mg/L [S] | 0.5 mg/L [S]
Candida albicans isolate 279 (Erg11p: V437I,E266D, Fur1p: WT, Tac1p: F189S,N174D,M170I,A90T,K87N) | 0.03 mg/L [S] | 0.03 mg/L [S] | 0.12 mg/L [S] | 0.12 mg/L [S] | ≤ 0.008 mg/L [S] | 0.06 mg/L [S] | ≤ 0.06 mg/L [S] | 0.5 mg/L [S] | 0.25 mg/L [S]
Candida albicans isolate 130 (Erg11p: E266D, Fur1p: WT, Tac1p: N896S,I558V,A377V,M170V) | 0.015 mg/L [S] | ≤ 0.008 mg/L [S] | 0.03 mg/L [S] | 0.06 mg/L [S] | ≤ 0.008 mg/L [S] | 0.03 mg/L [S] | ≤ 0.06 mg/L [S] | 0.5 mg/L [S] | 0.5 mg/L [S]
Candida albicans isolate 142 (Erg11p: E266D, Fur1p: WT, Tac1p: N896S,I558V,A377V,F189S,N174D,M170I,K87N) | 0.015 mg/L [S] | 0.015 mg/L [S] | 0.015 mg/L [S] | 0.12 mg/L [S] | ≤ 0.008 mg/L [S] | 0.03 mg/L [S] | ≤ 0.06 mg/L [S] | 0.5 mg/L [S] | 0.5 mg/L [S]
Candida albicans isolate 194 (Erg11p: Y132H,T123I, Fur1p: R101C, Tac1p: WT) | 0.015 mg/L [S] | 0.015 mg/L [S] | 0.015 mg/L [S] | ≤ 0.015 mg/L [S] | 0.25 mg/L | 0.03 mg/L [S] | 0.25 mg/L [S] | 0.25 mg/L [S] | 2 mg/L
Candida albicans isolate 302 (Erg11p: E266D, Fur1p: WT, Tac1p: N896S,A377V,F189S,N174D,M170I,K87N) | 0.015 mg/L [S] | 0.015 mg/L [S] | 0.03 mg/L [S] | 0.03 mg/L [S] | ≤ 0.008 mg/L [S] | 0.03 mg/L [S] | ≤ 0.06 mg/L [S] | 0.25 mg/L [S] | 0.25 mg/L [S]
Candida albicans isolate 303 (Erg11p: WT, Fur1p: WT, Tac1p: N896S) | 0.015 mg/L [S] | 0.015 mg/L [S] | 0.03 mg/L [S] | ≤ 0.015 mg/L [S] | ≤ 0.008 mg/L [S] | 0.03 mg/L [S] | ≤ 0.06 mg/L [S] | 0.5 mg/L [S] | 0.25 mg/L [S]
Candida albicans isolate 201 (Erg11p: V488I,E266D, Fur1p: WT, Tac1p: N896S,A377V,F189S,N174D,M170I,K87N) | 0.03 mg/L [S] | ≤ 0.008 mg/L [S] | 0.06 mg/L [S] | 0.06 mg/L [S] | ≤ 0.008 mg/L [S] | 0.06 mg/L [S] | ≤ 0.06 mg/L [S] | 0.5 mg/L [S] | 0.5 mg/L [S]
Candida albicans isolate 69 (Erg11p: G448E,Y132H, Fur1p: R101C, Tac1p: WT) | 0.03 mg/L [S] | ≤ 0.008 mg/L [S] | 0.015 mg/L [S] | ≤ 0.015 mg/L [S] | 0.5 mg/L | 0.06 mg/L [S] | 0.25 mg/L [S] | 0.5 mg/L [S] | 4 mg/L
Candida albicans isolate 216 (Erg11p: D153E, Fur1p: WT, Tac1p: N896S) | 0.03 mg/L [S] | 0.015 mg/L [S] | 0.06 mg/L [S] | 0.12 mg/L [S] | ≤ 0.008 mg/L [S] | 0.06 mg/L [S] | ≤ 0.06 mg/L [S] | 0.5 mg/L [S] | 0.5 mg/L [S]
Candida albicans isolate 245 (Erg11p: WT, Fur1p: WT, Tac1p: N896S) | 0.015 mg/L [S] | 0.015 mg/L [S] | 0.015 mg/L [S] | ≤ 0.015 mg/L [S] | ≤ 0.008 mg/L [S] | ≤ 0.015 mg/L [S] | ≤ 0.06 mg/L [S] | 0.5 mg/L [S] | ≤ 0.12 mg/L [S]
Candida albicans isolate 138 (Erg11p: E266D, Fur1p: WT, Tac1p: C908Y,A377V,N174D,M170I,I109N,K87N) | 0.015 mg/L [S] | ≤ 0.008 mg/L [S] | 0.015 mg/L [S] | 0.03 mg/L [S] | ≤ 0.008 mg/L [S] | 0.03 mg/L [S] | ≤ 0.06 mg/L [S] | 0.5 mg/L [S] | 0.25 mg/L [S]
Candida albicans isolate 256 (Erg11p: V488I,E266D, Fur1p: WT, Tac1p: N896S,L695F,I558V,F189S,L131I) | 0.015 mg/L [S] | 0.015 mg/L [S] | 0.03 mg/L [S] | ≤ 0.015 mg/L [S] | ≤ 0.008 mg/L [S] | ≤ 0.015 mg/L [S] | ≤ 0.06 mg/L [S] | 0.25 mg/L [S] | 0.25 mg/L [S]

Source: the supplement of paper PMC9927326
